# According to article PMC4336329 (PLoS ONE, 2015):
# The whole screen tested about 310,000 compounds, of which about 2,200 (0.71%) showed an effect of 50% or more. Effects have a minus sign here. The list shows a part of the results.
# Target: human ether-à-go-go-related gene (hERG) potassium channel (human, UniProt Q12809)
# Experiment: primary screen, population patch clamp on CHO cells stably expressing hERG
# Chain of human ether-à-go-go-related gene (hERG) potassium channel (Q12809 whole entry, looked up): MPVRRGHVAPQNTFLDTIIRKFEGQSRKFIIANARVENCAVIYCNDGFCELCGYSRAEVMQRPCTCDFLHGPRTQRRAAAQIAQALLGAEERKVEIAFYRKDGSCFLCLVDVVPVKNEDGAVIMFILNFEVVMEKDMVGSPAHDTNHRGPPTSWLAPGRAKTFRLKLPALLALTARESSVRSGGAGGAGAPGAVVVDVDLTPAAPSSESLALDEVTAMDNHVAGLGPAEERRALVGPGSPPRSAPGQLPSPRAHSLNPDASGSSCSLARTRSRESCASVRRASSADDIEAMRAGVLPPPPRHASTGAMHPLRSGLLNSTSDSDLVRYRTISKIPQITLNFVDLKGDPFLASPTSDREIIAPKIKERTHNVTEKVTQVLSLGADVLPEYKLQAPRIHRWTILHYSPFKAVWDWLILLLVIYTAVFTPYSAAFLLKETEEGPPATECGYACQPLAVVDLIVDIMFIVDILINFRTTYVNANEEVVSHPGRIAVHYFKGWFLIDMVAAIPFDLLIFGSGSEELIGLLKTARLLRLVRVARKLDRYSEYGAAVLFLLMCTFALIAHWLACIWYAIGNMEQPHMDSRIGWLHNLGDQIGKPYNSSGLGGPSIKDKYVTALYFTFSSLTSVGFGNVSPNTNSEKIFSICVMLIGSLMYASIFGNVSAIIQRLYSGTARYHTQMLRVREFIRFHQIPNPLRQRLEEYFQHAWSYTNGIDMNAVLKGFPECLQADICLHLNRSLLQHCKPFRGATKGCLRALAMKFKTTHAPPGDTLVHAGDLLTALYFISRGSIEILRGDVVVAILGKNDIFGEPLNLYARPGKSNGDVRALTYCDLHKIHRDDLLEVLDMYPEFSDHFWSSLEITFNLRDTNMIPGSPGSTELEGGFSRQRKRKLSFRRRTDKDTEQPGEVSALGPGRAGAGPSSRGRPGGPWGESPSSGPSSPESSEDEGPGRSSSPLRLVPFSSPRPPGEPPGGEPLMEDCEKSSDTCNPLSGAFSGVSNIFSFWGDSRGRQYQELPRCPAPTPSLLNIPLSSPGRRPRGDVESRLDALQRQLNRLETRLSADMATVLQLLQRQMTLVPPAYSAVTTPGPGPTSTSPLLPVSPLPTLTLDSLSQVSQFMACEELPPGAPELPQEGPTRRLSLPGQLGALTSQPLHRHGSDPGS
row,Compound,"hERG current change (%, negative = inhibition) at 1uM [%]"
1,CS(=O)(=O)N1CCC(C(=O)Nc2ccccc2Sc2ccccc2)CC1,-1.17
2,O=C(/C=C/c1cccc([N+](=O)[O-])c1)NCC1CCCO1 (centres unmarked),3.55
3,COc1cc(/C=C2\SC(=S)N(Nc3ncc(C(F)(F)F)cc3Cl)C2=O)ccc1O,16.7
4,CCOC(=O)N1CCN(CC(O)COCc2ccccc2)CC1.Cl (centres unmarked),4.29
5,CCOc1cc2[nH]c(=O)n(CCCN3CCCC3=O)c(=O)c2cc1OCC,0.793
6,O=S(=O)(Cc1ccc(Cl)cc1)NCc1ccc2c(c1)OCO2,9.01
7,CCOc1ccc(CCNC(=O)c2cccnc2N2CCCC2)cc1OCC,12.3
8,O=C1N(Cc2cccc(Cl)c2)C[C@@H]2C[C@@H](c3ccc4nonc4c3)N3CCC[C@@]123,-9.26
9,CC1(C)NC(=O)N(CCOc2ccc([N+](=O)[O-])cc2)C1=O,2.44
10,CC(=O)c1cccc(NC(=S)NC(=O)c2ccc(Cl)cc2)c1,5.34
11,COc1cccc(/C=N/N(C)C2=NS(=O)(=O)c3ccccc32)c1O,9.89
12,COc1ccccc1-c1c(C)nn2c(-c3ccccc3)cc(C)nc12,7.9
13,Cc1ccc2c(c1)c(N=NC(N)=S)c(O)n2Cc1ccccc1,18.6
14,O=C(CSc1n[nH]c(-c2ccc(Cl)cc2Cl)n1)Nc1ccccn1,9.12
15,COc1ccc(C(=O)N2CCNC(=O)C2CC(=O)Nc2ccc(C)c(C)c2)cc1 (centres unmarked),19.1
16,NS(=O)(=O)c1ccc(-c2ccc(C=NC3CCS(=O)(=O)C3)o2)cc1 (centres unmarked),-0.403
17,Cc1ccc(C(=O)CC2SC(N)=NC2=O)cc1 (centres unmarked),6
18,O=[N+]([O-])c1cccc(S(=O)(=O)NCCc2ccccc2)c1,13
19,CCc1cc[n+](-c2nc3ccccc3nc2[N-]S(=O)(=O)c2ccc(Br)s2)cc1,6.99
20,Cc1ccc([N+](=O)[O-])c(NC(=O)COC(=O)C2CC3CCCC(C2)C3=O)c1C (centres unmarked),5.4
21,Cn1c(=O)oc2cc(S(=O)(=O)N3CCC(C(=O)Nc4ccc(OC(F)(F)F)cc4)CC3)ccc21,9.7
22,Cc1ccccc1C(=O)NC1CCN(CC(=O)NCc2cccs2)CC1,6.66
23,CCOC(=O)C1=C(COC(=O)CC(C)c2ccccc2)NC(=O)NC1C (centres unmarked),5.95

row,Compound,"hERG current change (%, negative = inhibition) at 1uM [%]"
1,CCN(CC)C(=O)COC(=O)c1ccc(O)cc1,7.36
2,CC(=O)c1ccc(Oc2cc(C)nc(-n3nc(C)cc3C)n2)cc1,-9.96
3,O=C(NCc1nc2ccccc2[nH]1)c1ccco1,8.59
4,CC(NC(=O)c1ccccc1NC(=O)c1ccco1)C(=O)O (centres unmarked),5.33
5,CCC(CC)NC(=O)Nc1ccccc1C(F)(F)F,6.33
6,Cc1ccc(O)c(NC(=O)/C=C/C(=O)O)c1,39.2
7,CCN(CC)S(=O)(=O)c1ccc(Cl)c(NC(=O)CCCCl)c1,-8.31
8,CC1CC(C)CN(C(=O)C2CC(=O)N(c3ccc(F)cc3)C2)C1 (centres unmarked),-3.25
9,O=C(O)c1cn(-c2ccccc2)nc1C(=O)O,11.2
10,CCN(CC)c1ccc(NC(=S)NC(=O)c2cccs2)cc1,13
11,COc1ccc(CNc2nc(SCC(=O)NCc3ccco3)nc3ccccc23)cc1,-49.8
12,CCC1CCCCN1C(=O)CCCOc1ccccc1 (centres unmarked),1.24
13,CCOC(=O)C1CCN(c2ncnc3c2cnn3C)CC1,5.8
14,O=C(C1CC1)N1CCCC(c2ccc(Cl)cc2)=N1,20.2
15,O=C1N[C@@H](Cc2cn(S(=O)(=O)c3ccc(F)cc3)c3ccccc23)C(=O)N[C@H]1Cc1ccccc1,12.8
16,COc1ccc(CCNC(=O)c2cc(C(C)C)on2)cc1OC,13.2
17,CCOC(=O)N1CCC(NC(=O)c2cnn3cccnc23)CC1,-4.76
18,CCOc1ccc(N2CC(NC(=O)c3ccc4ccccc4c3)CC2=O)cc1 (centres unmarked),15.6
19,COCCN(C(=O)c1ccco1)C(C(=O)NC1CCCC1)c1cccs1 (centres unmarked),6.71
20,CS(=O)(=O)N1CCCC(C(=O)N2CCc3ccccc3C2)C1 (centres unmarked),4.12
21,COc1ccc(CNC(=O)Cn2ccc([N+](=O)[O-])n2)cc1OC,9.7
22,O=C(COC(=O)COc1cccc(Br)c1)Nc1ccc(F)cc1F,9.04
23,NC(=O)c1ccsc1NC(=O)CSc1nnc2ccccn12,9.49

row,Compound,"hERG current change (%, negative = inhibition) at 1uM [%]"
1,Cc1ccc(/C=C/C(=O)O)cc1S(=O)(=O)NCC1CCCO1 (centres unmarked),10.8
2,CC(NC(=O)COc1ccccc1)C1COc2ccccc2O1 (centres unmarked),-7.79
3,Cc1nc2ccccc2nc(C)c1=NOCc1ccc(C#N)cc1,2.25
4,C[C@@H]1CC[C@@]2(O[C@H](CCO)C[C@H](O)[C@H]2O)O1,22.7
5,CSc1ccccc1OCc1cc(C(=O)N(C)C2CCCc3ccccc32)no1 (centres unmarked),10.8
6,COC(=O)[C@@H](NC(=O)Nc1ccc(S(N)(=O)=O)cc1)C(C)C,0.78
7,COC(=O)N(C)CCCC1(C)C(=O)N(C)c2ccc(O)cc21 (centres unmarked),-3.35
8,N#CC1(NC(=O)COC(=O)c2cc(=O)[nH]c3ccccc23)CCCCC1,15.9
9,CC(C)(C)NC(=O)C1CCN(C(=O)c2ccc(Br)cc2)CC1,-0.376
10,COc1cc(C(=O)Nc2ccc3ccccc3c2)cc(OC)c1OC,10.1
11,NS(=O)(=O)c1ccc(Nc2ccc3nonc3c2[N+](=O)[O-])cc1,10.5
12,COc1ccc(NC(=S)N(Cc2cccnc2)Cc2cc3cc(OC)c(OC)cc3[nH]c2=O)cc1,15.4
13,CN(C)CCNC(=O)c1cccc(S(=O)(=O)Nc2ccccc2F)c1,14
14,CN(C)c1ccc(-c2nnn(CC(=O)Nc3ccccc3N3CCOCC3)n2)cc1,-4.96
15,CCn1cc(CN2CCC(n3nccc3NC(=O)c3ccccc3C)CC2)cn1,-14.9
16,O=C(c1ccc(-n2cnnn2)cc1)N(C1CCCCC1)C1CCCCC1,7.09
17,Cn1c(=O)c2c(SCc3cccnc3)nc(CC(C)(C)C)nc2n(C)c1=O,-12.1
18,COc1cc(CNC2CCCCCCC2)cc(Br)c1OCC#N.Cl,5.27
19,C/C(=N\NC(=O)CNc1ccc(F)cc1)c1cc2ccccc2o1,1.01
20,Cc1cc(NC(=O)c2ccc([N+](=O)[O-])cc2)n(CCC#N)n1,6.73
21,NS(=O)(=O)c1cccc(NC(=O)COC(=O)Cc2ccc(Cl)cc2)c1,11.5
22,COc1cc2oc(=O)ccc2c(OC)c1CC(O)C(C)(C)O (centres unmarked),7.44
23,CCN(CC(=O)Nc1ccc(OC)cc1)C(=O)c1ccc(NS(=O)(=O)c2ccc(C(C)=O)cc2)cc1,10.7

row,Compound,"hERG current change (%, negative = inhibition) at 1uM [%]"
1,Cc1cc(Cl)ccc1OCC(=O)Nn1c(C)ccc1C,6.44
2,COc1ccc(NC(=O)CCCCC#Cc2ccccc2)cc1,11.8
3,Cc1nnc(SCc2nnc(-c3ccccc3)o2)n(N)c1=O,3.28
4,CC1O[C@@H](O[C@H](C)CC[C@@H](C)O[C@H]2OC(C)[C@@H](O)C[C@H]2O)C(O)C[C@H]1O (some centres unmarked),14
5,COc1cc(C(=O)Nc2ccc(-c3nc4cc(C)ccc4o3)c(O)c2)cc(OC)c1OC,12.4
6,O=C(C1=C[C@@H](c2coc3ccccc3c2=O)C[C@@H](OCCCCO)O1)N1CCN(Cc2ccccc2)CC1,0.453
7,O=S(=O)(Nc1ccc(Cl)cn1)c1cnc(Cl)c(Br)c1,-0.796
8,N#C/C(=C\c1ccccc1)C(=O)Nc1nncs1,15.8
9,Cc1cccc(N(CC(=O)N/N=C/c2ccc(C(=O)O)cc2)S(=O)(=O)c2ccccc2)c1C,13.6
10,CC(C)(C)c1ccc2c(c1)N(CC(=O)O)C(=O)CO2,-14.6
11,O=C(CSc1nnc(-c2ccccc2F)n1C1CCCCC1)N1CCCC1,2.4
12,O=C1c2ccncc2C(=O)N1CNc1ccc(Cl)cc1,20.1
13,Cc1c(C)n(Cc2ccccc2)c2ncnc(Cl)c12,12.8
14,Cn1c(SCC(=O)c2ccc(-c3ccccc3)cc2)nnc1-c1ccco1,11.5
15,COc1ccc(/C=N/N2C(=N)SCC2=O)cc1,6.92
16,CCC(C)NC(=O)CSc1nc2ccsc2c(=O)n1-c1ccc(OC)cc1 (centres unmarked),-0.177
17,COc1ccc(NS(=O)(=O)c2ccc3c(c2)CCN3C(=O)CCC(=O)O)cc1OC,4.41
18,Cl.O=C(CNC1CCCCCC1)c1cccs1,8.77
19,O=C(Nc1ccc(F)cc1F)N1CCN(C/C=C/c2ccccc2)CC1,-15.3
20,CC1(C)Cc2cccc(Oc3cc(NN4CCCCC4)c([N+](=O)[O-])cc3[N+](=O)[O-])c2O1,16.2
